This passage reports binding signal results from paper PMC9911399, “Two distinct binding modes provide the RNA-binding protein RbFox with extraordinary sequence specificity”.

The labels stand for the following.
T1: RBFOX1 RRM RbFoxmut (Fox-RRM*) (Homo sapiens, UniProt Q9NWB1 109-208, R118D;E147R;N151S;E152T)
T1 sequence: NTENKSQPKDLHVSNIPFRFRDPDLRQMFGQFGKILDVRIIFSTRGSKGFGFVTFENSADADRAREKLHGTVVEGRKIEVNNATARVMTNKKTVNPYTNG

B1: AAUCUCA (DNA:RNA)
RNA: GGGAGACCGGAAUUCAGAUUGUCCAAUCUCAUUAAAUCCCGUCGUAGCCACCA
DNA 1: CAATCTGAATTCCGGTCTCCC
DNA 2: TGGTGGCTACGACGGGATT
B2: UCUCGCA (DNA:RNA)
RNA: B1 RNA with A25U, A26C, U29G
DNA 1: CAATCTGAATTCCGGTCTCCC
DNA 2: TGGTGGCTACGACGGGATT
B3: AACUGAC (DNA:RNA)
RNA: B1 RNA with U27C, C28U, U29G, C30A, A31C
DNA 1: CAATCTGAATTCCGGTCTCCC
DNA 2: TGGTGGCTACGACGGGATT
B4: CAAUCUG (DNA:RNA)
RNA: B1 RNA with A25C, U27A, C28U, U29C, C30U, A31G
DNA 1: CAATCTGAATTCCGGTCTCCC
DNA 2: TGGTGGCTACGACGGGATT
B5: GCCAUAU (DNA:RNA)
RNA: B1 RNA with A25G, A26C, U27C, C28A, C30A, A31U
DNA 1: CAATCTGAATTCCGGTCTCCC
DNA 2: TGGTGGCTACGACGGGATT
B6: CAUACCA (DNA:RNA)
RNA: B1 RNA with A25C, C28A, U29C
DNA 1: CAATCTGAATTCCGGTCTCCC
DNA 2: TGGTGGCTACGACGGGATT
B7: UACAUGG (DNA:RNA)
RNA: B1 RNA with A25U, U27C, C28A, C30G, A31G
DNA 1: CAATCTGAATTCCGGTCTCCC
DNA 2: TGGTGGCTACGACGGGATT
B8: GUUGCGG (DNA:RNA)
RNA: B1 RNA with A25G, A26U, C28G, U29C, C30G, A31G
DNA 1: CAATCTGAATTCCGGTCTCCC
DNA 2: TGGTGGCTACGACGGGATT
B9: UGAGGAA (DNA:RNA)
RNA: B1 RNA with A25U, A26G, U27A, C28G, U29G, C30A
DNA 1: CAATCTGAATTCCGGTCTCCC
DNA 2: TGGTGGCTACGACGGGATT
B10: AGCGGCG (DNA:RNA)
RNA: B1 RNA with A26G, U27C, C28G, U29G, A31G
DNA 1: CAATCTGAATTCCGGTCTCCC
DNA 2: TGGTGGCTACGACGGGATT
B11: ACGACUG (DNA:RNA)
RNA: B1 RNA with A26C, U27G, C28A, U29C, C30U, A31G
DNA 1: CAATCTGAATTCCGGTCTCCC
DNA 2: TGGTGGCTACGACGGGATT
B12: CUAUGGA (DNA:RNA)
RNA: B1 RNA with A25C, A26U, U27A, C28U, U29G, C30G
DNA 1: CAATCTGAATTCCGGTCTCCC
DNA 2: TGGTGGCTACGACGGGATT
B13: CGCUAAC (DNA:RNA)
RNA: GGGAGACCGGAAUUCAGAUUGUCCCGCUAACUUAAAUCCCGUCGUAGCCACCA
DNA 1: CAATCTGAATTCCGGTCTCCC
DNA 2: TGGTGGCTACGACGGGATT
B14: UUGGCUG (DNA:RNA)
RNA: GGGAGACCGGAAUUCAGAUUGUCCUUGGCUGUUAAAUCCCGUCGUAGCCACCA
DNA 1: CAATCTGAATTCCGGTCTCCC
DNA 2: TGGTGGCTACGACGGGATT
B15: UUCACCG (DNA:RNA)
RNA: B14 RNA with G27C, G28A, U30C
DNA 1: CAATCTGAATTCCGGTCTCCC
DNA 2: TGGTGGCTACGACGGGATT
B16: GUUGCAU (DNA:RNA)
RNA: B14 RNA with U25G, G27U, U30A, G31U
DNA 1: CAATCTGAATTCCGGTCTCCC
DNA 2: TGGTGGCTACGACGGGATT
B17: AGAAUGU (DNA:RNA)
RNA: B1 RNA with A26G, U27A, C28A, C30G, A31U
DNA 1: CAATCTGAATTCCGGTCTCCC
DNA 2: TGGTGGCTACGACGGGATT
B18: CGUGUCA (DNA:RNA)
RNA: B1 RNA with A25C, A26G, C28G
DNA 1: CAATCTGAATTCCGGTCTCCC
DNA 2: TGGTGGCTACGACGGGATT
B19: AGCCGUA (DNA:RNA)
RNA: B1 RNA with A26G, U27C, U29G, C30U
DNA 1: CAATCTGAATTCCGGTCTCCC
DNA 2: TGGTGGCTACGACGGGATT
B20: AUCGUGC (DNA:RNA)
RNA: B1 RNA with A26U, U27C, C28G, C30G, A31C
DNA 1: CAATCTGAATTCCGGTCTCCC
DNA 2: TGGTGGCTACGACGGGATT
B21: GAACUGC (DNA:RNA)
RNA: B1 RNA with A25G, U27A, C30G, A31C
DNA 1: CAATCTGAATTCCGGTCTCCC
DNA 2: TGGTGGCTACGACGGGATT
B22: UUUUUAG (DNA:RNA)
RNA: B14 RNA with G27U, G28U, C29U, U30A
DNA 1: CAATCTGAATTCCGGTCTCCC
DNA 2: TGGTGGCTACGACGGGATT
B23: CAUAUCU (DNA:RNA)
RNA: B1 RNA with A25C, C28A, A31U
DNA 1: CAATCTGAATTCCGGTCTCCC
DNA 2: TGGTGGCTACGACGGGATT
B24: GGCCGCG (DNA:RNA)
RNA: B1 RNA with A25G, A26G, U27C, U29G, A31G
DNA 1: CAATCTGAATTCCGGTCTCCC
DNA 2: TGGTGGCTACGACGGGATT
B25: CAGCUCC (DNA:RNA)
RNA: B1 RNA with A25C, U27G, A31C
DNA 1: CAATCTGAATTCCGGTCTCCC
DNA 2: TGGTGGCTACGACGGGATT
B26: AUGCCUC (DNA:RNA)
RNA: B14 RNA with U25A, G28C, G31C
DNA 1: CAATCTGAATTCCGGTCTCCC
DNA 2: TGGTGGCTACGACGGGATT
B27: UCUAAGU (DNA:RNA)
RNA: B1 RNA with A25U, A26C, C28A, U29A, C30G, A31U
DNA 1: CAATCTGAATTCCGGTCTCCC
DNA 2: TGGTGGCTACGACGGGATT
B28: CCUAUUG (DNA:RNA)
RNA: B1 RNA with A25C, A26C, C28A, C30U, A31G
DNA 1: CAATCTGAATTCCGGTCTCCC
DNA 2: TGGTGGCTACGACGGGATT
B29: CAAUAAC (DNA:RNA)
RNA: B13 RNA with G26A, C27A
DNA 1: CAATCTGAATTCCGGTCTCCC
DNA 2: TGGTGGCTACGACGGGATT
B30: UCUGACU (DNA:RNA)
RNA: B1 RNA with A25U, A26C, C28G, U29A, A31U
DNA 1: CAATCTGAATTCCGGTCTCCC
DNA 2: TGGTGGCTACGACGGGATT
B31: CUCGGGC (DNA:RNA)
RNA: B13 RNA with G26U, U28G, A29G, A30G
DNA 1: CAATCTGAATTCCGGTCTCCC
DNA 2: TGGTGGCTACGACGGGATT

Numbering of substitutions follows the chain as printed; changes in the protein carry UniProt numbers. The list shows a part of the results.

This assay has as its target T1, RBFOX1 RRM RbFoxmut (Fox-RRM*). Kind of assay: EMSA; HiTS-Eq, 1 nM pool, 10 min; buffer printed only for the single-RNA assays: 10 mM Tris pH 7.5, 150 mM NaCl, 3.4 mM EDTA, 0.001% NP-40, 30 C. The following applies: tags: His6 N-terminal (pET28a); label: 5' 32P. In outline: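 These values rest on relative association constants, computed from read-count changes of each RNA species versus the control reaction and normalised to the cognate motif. Reads came from free RNA recovered by 8% native PAGE after purified RbFox RRM (wild type or mutant) at increasing concentrations was equilibrated for 10 min in 50 µL with 1 nM of a 5′-radiolabelled pool with 7 randomized nucleotides and DNA-annealed flanks.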
Regarding B1, the binding signal is 0.0581 KA relative to UGCAUGU.

Regarding B2, the binding signal was 0.123 KA relative to UGCAUGU. In the case of B3, the binding signal is 0.0697 KA relative to UGCAUGU. As for B4, the binding signal was 0.0605 KA relative to UGCAUGU. The result for B5 reads 0.0922 KA relative to UGCAUGU; that for B6, 0.106 KA relative to UGCAUGU; that for B7, 0.0424 KA relative to UGCAUGU. The result for B8 reads 0.0792 KA relative to UGCAUGU; that for B9, 0.0904 KA relative to UGCAUGU. For the molecule B10, the binding signal is 0.138 KA relative to UGCAUGU. For the molecule B11, the binding signal was 0.154 KA relative to UGCAUGU.

For B12, the binding signal is 0.0791 KA relative to UGCAUGU. As to B13, the binding signal was 0.111 KA relative to UGCAUGU. The result for B14 reads 0.435 KA relative to UGCAUGU; that for B15, 0.112 KA relative to UGCAUGU.

For B16, the binding signal was 0.139 KA relative to UGCAUGU. As to B17, the binding signal is 0.798 KA relative to UGCAUGU.

On to B18, for which the binding signal was 0.121 KA relative to UGCAUGU. On to B19, for which the binding signal is 0.0985 KA relative to UGCAUGU. For the molecule B20, the binding signal was 0.196 KA relative to UGCAUGU. The result for B21 reads 0.0791 KA relative to UGCAUGU; that for B22, 0.151 KA relative to UGCAUGU; that for B23, 0.0973 KA relative to UGCAUGU. B24: the binding signal is 0.101 KA relative to UGCAUGU. On to B25, for which the binding signal was 0.0583 KA relative to UGCAUGU. On to B26, for which the binding signal is 0.078 KA relative to UGCAUGU. Consider B27, for which the binding signal was 0.0999 KA relative to UGCAUGU.

For B28, the binding signal is 0.0911 KA relative to UGCAUGU. For the molecule B29, the binding signal was 0.0948 KA relative to UGCAUGU. As for B30, the binding signal was 0.0694 KA relative to UGCAUGU.

For the molecule B31, the binding signal is 0.0837 KA relative to UGCAUGU.
